This is one part of the list.
Each sequence was assayed against no compound (DMSO) (assay: log2 fold change of degron read counts, EGFP-low vs EGFP+ sorted cells; higher = lower degron-EGFP level without compound (poor expression or instability)). Settings: compound: DMSO control; 18 h.
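Note: jurkat cells carrying a lentiviral library of mutant zinc finger degrons fused to EGFP plus mCherry, mCherry+ cells FACS sorted, degron abundance counted by next-generation sequencing.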

Sequence | log2 fold change of degron read counts
FNCEICGAPFTQKGNLLRHIKL | -0.286
FTCEICGACFTQKGNLLRHIKL | -1.04
FGCPICGHDFTQKGNLLRHIKL | -0.255
FQCPICGRTFTQKGNLLRHIKL | -0.454
FQCPQCGAGFTQKGNLLRHIKL | -0.427
FVCNVCGARFTQKGNLLRHIKL | -1.03
FNCNQCGAKFTQKGNLLRHIKL | -0.405
LNCPICGFLCTQKGNLLRHIKL | 1.17
LQCNQCGFTCTQKGNLLRHIKL | 0.353
FRCEICGRLFTQKGNLLRHIKL | -0.531
FICPICGAKFTQKGNLLRHIKL | -0.159
FMCEICGHNFTQKGNLLRHIKL | -1.25
FYCEICGAAFTQKGNLLRHIKL | -1.12
FTCNQCGRRFTQKGNLLRHIKL | 0.435
FCCNQCGHPFTQKGNLLRHIKL | 0.0519
FGCDICGAIFTQKGNLLRHIKL | -0.742
LFCEICGFKCTQKGNLLRHIKL | 0.07
FICNICGAVFTQKGNLLRHIKL | 0.164
FACPICGARFTQKGNLLRHIKL | -0.509
FNCNVCGAEFTQKGNLLRHIKL | -1.99
FICEICGHRFTQKGNLLRHIKL | -0.815
FMCNQCGACFTQKGNLLRHIKL | -0.579
FYCDQCGAPFTQKGNLLRHIKL | -0.833
FLCEVCGAHFTQKGNLLRHIKL | -1.73
FFCNVCGAEFTQKGNLLRHIKL | -0.934

Sequence | log2 fold change of degron read counts
FECNICGADFTQKGNLLRHIKL | -1.03
FRCNQCGHIFTQKGNLLRHIKL | -0.0307
FQCNVCGALFTQKGNLLRHIKL | 0.212
LLCEICGFFCTQKGNLLRHIKL | 1.87
FHCEQCGAIFTQKGNLLRHIKL | -0.592
FLCNQCGHCFTQKGNLLRHIKL | -0.279
LLCNQCGFDCTQKGNLLRHIKL | 0.333
FYCPICGRRFTQKGNLLRHIKL | -3.78
FKCNQCGHEFTQKGNLLRHIKL | -1.39
FECSVCGHGFTQKGNLLRHIKL | -1.84
FWCEVCGAQFTQKGNLLRHIKL | -0.632
LGCPICGFQCTQKGNLLRHIKL | 0.398
FNCSVCGHDFTQKGNLLRHIKL | -1.07
FLCEICGRHFTQKGNLLRHIKL | 0.078
FSCEICGHRFTQKGNLLRHIKL | 0.0965
FACPQCGAFFTQKGNLLRHIKL | 0.249
FGCPICGHTFTQKGNLLRHIKL | -0.437
FQCNVCGAQFTQKGNLLRHIKL | -1.15
FLCEICGRPFTQKGNLLRHIKL | -0.953
FVCPICGRSFTQKGNLLRHIKL | -0.652
FQCNICGARFTQKGNLLRHIKL | 0.00338
FDCDICGACFTQKGNLLRHIKL | -1.03
FDCNQCGANFTQKGNLLRHIKL | -0.152
FMCPQCGAGFTQKGNLLRHIKL | -0.433
FQCDVCGAPFTQKGNLLRHIKL | -1.3
